# Measured values taken from ChEMBL document CHEMBL4888484, “Replenishing the malaria drug discovery pipeline: Screening and hit evaluation of the MMV Hit Generation Library 1 (HGL1) against asexual blood stage Plasmodium falciparum ,using a nano luciferase reporter read-out” (2022).
# The campaign covered roughly 150,000 compounds. About 540 (0.36%) showed an effect of 50% or more. The list shows a part of the results.
# Tested on: Plasmodium falciparum
# Assay: Primary screen in NF54 nanoGlo assay, in single point, at 2uM, 72h; a lower Z score goes with more inhibition
# Type: functional, Erythrocyte
# Details: timepoint 72 hour
SMILES,% Inhibition [%],Z score
N#Cc1ncoc1N1CCC(C(N)=O)CC1,-1,0.11
Cn1nccc1C(=O)N1CCC2(CCCCO2)CC1,-5,0.83
Cc1ccc(-n2nc(NC(=O)NCCc3cccnc3C)cc2C)cc1,-3,0.51
Cc1cc(NC(=O)N(C)Cc2ccco2)ccc1OC1CCOCC1,-5,0.91
CCOc1cc(CNC(=O)c2cccc(NC(=O)c3nnc(C)s3)c2)cc(OCC)c1OCC,-6,0.84
CS(=O)(=O)C1(CNS(=O)(=O)CC23CCC(CC2)CC3)CC1,-6,0.6
Cc1ccsc1-c1cnc2n1CCOC2,-2,0.28
N[C@H]1CCCCc2cc(Br)ccc21,-4,0.58
COc1ccc(-c2c(C)nn(C)c2NC(=O)CCn2nc(C)c(C(C)=O)c2C)cc1,-10,1.82
Cc1n[nH]c(C2CN(C3CCc4ccccc4NC3=O)CCO2)n1 (configuration not stated),-8,0.87
O=C(c1nc2sccn2c1CN(CCO)Cc1cccs1)N1CCCC1,-2,0.36
CCOCCCCNC(=O)N1CCCC2CCCC21 (configuration not stated),-2,0.22
N#CC1(NC(=O)c2ccc3c(c2O)CCCC3)CCCC1,9,-1.06
Cc1ccc(-c2ccccc2-c2cn(Cc3cc(O)ncn3)nn2)o1,-6,1.02
Cc1cc(C(=O)NC2CC(F)(F)C2)oc1C,-5,0.9
O=C(NCCc1ccccc1)NC1CCCC1,-11,2.11
Cc1ccsc1C(=O)N(CCN(C)C)C1CCOCC1,-4,0.66
CCCc1cc(-c2nc(-c3ccc4[nH]cnc4c3)no2)no1,-8,1.62
CCN(CC)C(=O)CN1CCCN(c2cc(OC)ncn2)CC1,10,-1.26
Cc1c(Br)cncc1NC(=O)C[C@H]1CCCCO1,3,-0.65
CCc1ccc(Cn2nc(CC(N)=O)nc2-c2cnn3ccn(C)c23)cc1,-24,2.21
CN1CCCN(CC(=O)N2C[C@@H]3CC[C@@H](C3)C2)CC1,-12,2
Cc1ccc2c(c1)C(NC(=O)NCCC1CCCCO1)CO2 (configuration not stated),-7,0.84
CC(C)Oc1cccc(-c2c[nH]c([C@H]3CC(=O)N(C4CC4)C3)n2)c1,-7,1.11
CC(C)c1nccc(N2CCC3CCC(C2)S3(=O)=O)n1 (configuration not stated),-6,1.23
CC1(C)C(NCC2CCS(=O)(=O)C2)CC1OCc1ccccc1 (configuration not stated),-3,0.39
